In patent US20240158497A1:
Several values for one entry are separate records, joined by “and”; a condition that tells them apart may be missing. Identical values can stand only once. Values belong to the binder of their own block, whether it stands above or below them.

Molecular target: wild-type human GP130 on HEK293.STAT3.Luc.GP130 reporter cells (human), P40189
Experiment: cell-based or functional assay

Chain of wild-type human GP130 on HEK293.STAT3.Luc.GP130 reporter cells (human), P40189 (P40189 23-918): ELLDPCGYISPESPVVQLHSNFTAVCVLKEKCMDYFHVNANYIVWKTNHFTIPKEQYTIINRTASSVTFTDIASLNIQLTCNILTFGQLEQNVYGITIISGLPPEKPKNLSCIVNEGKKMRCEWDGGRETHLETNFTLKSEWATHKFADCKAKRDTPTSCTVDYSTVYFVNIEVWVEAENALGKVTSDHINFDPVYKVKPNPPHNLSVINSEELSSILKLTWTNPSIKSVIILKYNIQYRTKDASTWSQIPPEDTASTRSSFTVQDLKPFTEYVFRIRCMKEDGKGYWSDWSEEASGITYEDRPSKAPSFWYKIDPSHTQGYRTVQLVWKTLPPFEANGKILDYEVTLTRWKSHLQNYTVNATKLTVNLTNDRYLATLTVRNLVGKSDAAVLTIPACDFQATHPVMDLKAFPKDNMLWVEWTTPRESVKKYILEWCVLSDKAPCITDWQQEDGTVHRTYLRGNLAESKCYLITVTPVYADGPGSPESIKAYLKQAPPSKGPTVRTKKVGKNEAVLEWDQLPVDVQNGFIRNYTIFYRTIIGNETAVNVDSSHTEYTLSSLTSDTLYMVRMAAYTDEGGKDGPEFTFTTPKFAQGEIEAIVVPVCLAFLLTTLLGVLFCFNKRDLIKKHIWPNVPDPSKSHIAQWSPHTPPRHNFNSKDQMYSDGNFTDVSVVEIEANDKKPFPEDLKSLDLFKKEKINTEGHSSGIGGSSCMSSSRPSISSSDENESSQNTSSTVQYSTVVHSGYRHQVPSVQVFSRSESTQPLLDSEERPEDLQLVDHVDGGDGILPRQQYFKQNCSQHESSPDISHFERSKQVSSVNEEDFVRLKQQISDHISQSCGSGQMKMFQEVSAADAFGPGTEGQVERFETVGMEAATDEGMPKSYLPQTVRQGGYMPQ

- Assay Buffer, % activity: 100%
- EC50 (M), STAT3-luciferase activation of HEK293.STAT3.Luc.GP130.hLEPR (Y1141F) cells, 10 nM leptin: 2.46e-09 M
- RLU, Assay Buffer (no soluble protein): 44900 RLU and 38100 RLU
B1: bsAb21237D (bispecific antibody, V domains shown)
VH 1: EVQLVESGGGLVQPGGSLRLSCAASGFTFSNYGMTWVRQAPGKGLEWVSAITGGGGSTYYSNSVKGRFTISRDNSKNTVYLRMNSVRAEDTAVYYCAKYKWNFVDDWGQGTTVTVSS
VH 2: QVQLVESGGGLVKPGGSLRLSCAASGFTFSDYYMTWIRQTPGKGLDWVSYISSSGTNKYNADSVKGRFTISRDNAKNSLYLQMNSLRAEDTAVYYCVRDPPWGMDVWGQGTTVTVSS
VL: [letters of about 100 residues left out]

- Assay Buffer, % activity: 100%
- RLU, Assay Buffer (no soluble protein): 48900 RLU and 42200 RLU
B2: bsAb21236D (bispecific antibody, V domains shown)
VH 1: QVQLQESGPGLVKPSQTLSLTCTVSGGSISSGGDYWSWIRQLPGKGLEWIGYIYYSGSAYYNPSLKSRGTISIDTSKNQFSLKLTSVTAADTAVYFCVKLRFLEWFLGGWFGPWGQGTLVTVSS
VH 2: B1 VH 2
VL: [letters of about 100 residues left out]
